The whole screen tested about 52,000 compounds, of which about 4,300 (8.3%) were called active. No stated cut-off is given here; in the data, active means survival mostly below about 52% (no sharp cut-off); inactive means mostly above about 56%. The list shows a part of the results.

This assay deals with DeltatarO mutant. Put plainly: S. aureus survival, RN4220 and DeltatarO strains – OD600, teichoic acid synthesis inhibitors, primary screen (AID 463173). The note with it: S. aureus RN4220 wild type/DeltatarO growth, OD600, 18 h, stronger effect = lower value, screened at 18.75 µg/mL (by protocol).
`CCNC(=S)N1CCC(NC(=O)C23CC4CC(CC(C4)C2)C3)CC1`: the survival was inactive: 80%.
For `Cc1c(C)n(C)c2ccc(C(=O)NCCc3ccc(Cl)cc3)cc12`, the survival is inactive: 78%.
Turning to `COC(=O)c1c(C)oc2ccc(N(C(=O)Oc3ccccc3)S(=O)(=O)c3ccc(C(C)(C)C)cc3)cc12`, the survival was inactive: 85%.
In the case of `O=C(NCCc1ccc(Cl)cc1)c1ccc2c(c1)N(Cc1c(F)cccc1Cl)C(=O)CS2` it was active: 44%; in that of `Cc1ccc(NC(=O)C2CCCN(S(=O)(=O)c3c(C)n[nH]c3C)C2)cc1Cl` (configuration not stated), inactive: 83%; in that of `CCSc1nnc2c(n1)OC(c1sccc1C)N(C(C)=O)c1ccccc1-2` (configuration not stated), inactive: 53%.
Consider `CC(CC(=O)NC1CCCC1)c1ccccc1` (configuration not stated), for which the survival is inactive: 90%.
For `O=C(CSc1nc2c([nH]c3ccccc32)c(=O)n1-c1ccc(F)cc1)NCc1ccco1`, the survival is inactive: 81%.
With `CC1=C(C(=O)Nc2cc(Cl)ccc2C)C(c2ccco2)n2ncnc2N1` (configuration not stated), the survival was inactive: 92%.
Regarding `O=C(NCc1cccc(F)c1)c1ccc2nc(N3CCCCC3)sc2c1`, the survival was inactive: 85%.
Turning to `CCOC(=O)C1CCCN(S(=O)(=O)c2cc3c(cc2C)NC(=O)CO3)C1` (configuration not stated), the survival was inactive: 89%.
For the molecule `Cc1ccc(OCC(=O)Nc2ccc3nc(SCC(N)=O)sc3c2)cc1`, the survival is inactive: 73%.
On to `COc1ccc(Cn2c(=O)c3oc4ccccc4c3n(Cc3cccc(F)c3)c2=O)cc1`, for which the survival is inactive: 77%.
As for `COc1ccccc1N1CCN(CCCNC(=O)c2cnn(-c3ccc(C)c(C)c3)c2C2CCN(C(=O)OC(C)(C)C)CC2)CC1`, the survival was inactive: 98%.
As for `Fc1ccc(-c2cc(C(F)(F)F)nc(NCc3ccccc3)n2)cc1`, the survival was inactive: 85%.
Turning to `CCCCS(=O)(=O)c1oc(-c2ccc(F)cc2)nc1S(=O)(=O)c1ccccc1`, the survival is active: 4%.
On to `O=C(c1ccc2c(c1)N(Cc1ccc(F)cc1)C(=O)c1ccccc1S2(=O)=O)N1CCN(c2ccccn2)CC1`, for which the survival is inactive: 111%.
For `COc1ccccc1CNC(=O)c1cnc2c(-c3ccccc3)c(C)nn2c1C`, the survival was inactive: 96%.
For `CCOC(=O)c1c(NC(=O)C(C)Sc2cn(CCNC(=O)c3ccccc3OC)c3ccccc23)sc2c1CCC2` (configuration not stated), the survival was inactive: 80%.
Under `COC(=O)c1sc2cccc(F)c2c1S(=O)(=O)NCc1ccc(Cl)cc1` stands inactive: 102%; under `Cc1ccc(-n2nc3ccc(NC(=O)Cc4ccc(Cl)cc4)cc3n2)cc1`, inactive: 79%; under `COc1ccc(-c2noc(N3CCN(c4ccc(C)cc4)C(C)C3)n2)cc1OC` (configuration not stated), inactive: 99%.
In the case of `Cc1ccc(CSc2ncc(Cl)c(C(=O)Oc3ccc(F)cc3)n2)cc1` it was inactive: 77%.
Consider `CCC1Oc2ccc(C)cc2N(CC(=O)N(Cc2ccc(F)cc2)CC2CCCO2)C1=O` (configuration not stated), for which the survival is inactive: 90%.
Regarding `CCOc1ccc(NC(=O)Cn2c(=O)n(CCCC(=O)NCc3ccc4c(c3)OCO4)c(=O)c3ccccc32)cc1`, the survival is inactive: 90%.
For the molecule `Cc1ccc(-c2noc(=O)n2CC(=O)Nc2ccc(S(=O)(=O)N3CCCC3)cc2)cc1`, the survival is inactive: 89%.
Turning to `CCOC(=O)c1ccc2c(c1)[C@@H]1C=CC[C@@H]1[C@H](c1cccc(OC)c1OC)N2`, the survival was active: -10%.
Take `Cc1cc(C)c2sc(N(Cc3cccnc3)C(=O)CCOc3ccccc3)nc2c1`: the survival was inactive: 115%.
Under `CCCC(=O)C1=C(c2cccc(OC)c2)N(C(=O)CCC)n2c(C)nnc2S1` stands inactive: 85%; under `CCc1nn(CC(=O)N2CCN(c3ccc(Cl)cc3)CC2)c(=O)c2cc3occc3n12`, inactive: 87%.
For `CCn1c(=O)n(-c2cccc(Cl)c2)c(=O)c2sc3ccccc3c21`, the survival was inactive: 112%.
`O=C(Nc1ccc(Cl)cc1)c1cc2nc(-c3ccc4c(c3)OCO4)cc(C(F)(F)F)n2n1`: the survival was inactive: 83%.
As to `CC(=O)c1ccc(N2CCN(C(=O)c3cc4ccc5cccnc5c4[nH]3)CC2)cc1`, the survival is inactive: 55%.
For `COc1ccc(C(=O)Nc2ccccc2-c2nc(-c3ccc(OC)cc3)no2)cc1`, the survival was inactive: 48%.
In the case of `O=C(c1cnc(N2CCCCC2)c2ccccc12)N1CCN(c2ccc(Cl)cc2)CC1` it was inactive: 83%; in that of `COc1ccc(CCN2CC(C(=O)NCCc3ccccc3)CC2=O)cc1OC` (configuration not stated), inactive: 76%; in that of `O=C(CCC(=O)c1ccccc1)Nc1ccc(F)c(Cl)c1`, inactive: 83%.
In the case of `COc1ccc(OC)c(/C=C(\C#N)c2nc3ccccc3c(=O)[nH]2)c1`, the survival is inactive: 156%.
In the case of `Cc1cccc(NC(=O)C2CCCN(S(=O)(=O)c3ccc4c(c3)oc(=O)n4C)C2)c1` (configuration not stated), the survival was inactive: 70%.
For `O=S(=O)(NCCS(=O)(=O)N1CCN(c2ccccc2)CC1)c1ccc(Cl)cc1`, the survival is inactive: 89%.
On to `Cc1sc2c(c1C)c(=O)n(CCc1ccccc1)c(=O)n2Cc1ccc(F)cc1`, for which the survival is inactive: 52%.
In the case of `Cc1ccc(C)c(S(=O)(=O)NCCc2csc(-c3ccc(Cl)cc3)n2)c1`, the survival is inactive: 94%.
As for `COc1cc(OC)c(NC(=O)N2CCC(CN3CCOCC3)CC2)cc1Cl`, the survival was inactive: 97%.
In the case of `CN1CCN(Cc2c(O)ccc3cc(-c4ccc(Cl)cc4)c(=O)oc23)CC1`, the survival was inactive: 100%.
Under `CCc1cccc(NC(=O)CCc2c(C)nc3c(-c4ccccc4)c(C)nn3c2C)c1` stands inactive: 68%.
Take `CCN(C(=O)Cn1c(=O)oc2cc(S(=O)(=O)N3CCCCC3)ccc21)c1ccccc1`: the survival is inactive: 62%.
In the case of `CC(C)NC(=O)c1ccc2c(c1)N(Cc1cccc(Cl)c1)C(=O)c1ccccc1S2=O` (configuration not stated) it was inactive: 55%; in that of `CCc1ccccc1NS(=O)(=O)c1ccc2c(c1)CCCN2C(=O)C1CCC1`, inactive: 98%; in that of `Cc1nn2c(=O)cc(COC(=O)c3ccccc3NC(=O)c3cccs3)nc2s1`, inactive: 74%.
In the case of `COC(=O)c1sc2c(c1C)c(=O)n(-c1ccccc1)c(=O)n2CC(=O)Nc1cccc(C)c1`, the survival is inactive: 67%.
Consider `Cc1ccc(C)c(NC(=O)CCOc2ccccc2)c1`, for which the survival is inactive: 77%.
`Cc1ccc2nc(-c3ccc(F)cc3)c(NC(C)(C)CC(C)(C)C)n2c1`: the survival is active: 12%.
On to `Nc1cccc(NC(=O)CCC(=O)NCc2ccco2)c1`, for which the survival was inactive: 68%.
Take `Cc1c(Cl)cccc1NC(=O)CSc1ccc(-c2ccccn2)nn1`: the survival was inactive: 108%.
As for `COc1cccc(Nc2cc(C)nc3ccccc23)c1`, the survival was inactive: 109%.
Under `COc1cccc(CNC(=O)c2c(C)oc3ncnc(N4CCOCC4)c23)c1` stands inactive: 87%; under `COc1ccc(N2CCN(C(=O)C3Cc4ccccc4N3C(C)=O)CC2)cc1` (configuration not stated), inactive: 82%.
As to `CCOc1cc(CNC(=O)C2CCN(c3nc4ccccc4[nH]3)CC2)cc(OCC)c1OCC`, the survival was active: 20%.
For `COc1cccc(CC(=O)Nc2ccc(-c3nc4ccccc4s3)cc2Cl)c1`, the survival is inactive: 69%.
As for `Cc1cc(C)cc(N2CCn3c2nc2c3c(=O)n(C/C=C/c3ccccc3)c(=O)n2C)c1`, the survival is inactive: 92%.
As to `Cc1cc(C)c2nc(N3CCCC(C(=O)NCc4ccccc4F)C3)sc2c1` (configuration not stated), the survival is inactive: 102%.
For the molecule `Cc1ccc(C(=O)NC2CC(C)(C)NC(C)(C)C2)cc1`, the survival is inactive: 64%.
For the molecule `CCOC(=O)N1CCN(C(=O)Cc2cccc3ccccc23)CC1`, the survival is inactive: 94%.
Take `CCn1c(=O)n(-c2ccc3c(c2)OCO3)c2nc(-c3cccc(OC)c3OC)nc(C(N)=O)c21`: the survival was inactive: 92%.
As for `O=C1N/C(=N\S(=O)(=O)Cc2ccccc2)S/C1=C\c1ccco1`, the survival is inactive: 78%.
Regarding `COc1ccc(N2CCN(C(=O)c3ccc4c(c3)N(Cc3cccc(Cl)c3)C(=O)c3ccccc3S4(=O)=O)CC2)cc1`, the survival is inactive: 83%.
Under `Cc1ccccc1C(=O)Nc1cc2c(cc1N1CCCCC1)n(C)c(=O)n2C` stands inactive: 66%; under `O=C(NCc1cccc(Cl)c1)c1cc2c(s1)-c1ccccc1SC2`, inactive: 64%.
In the case of `O=C(Cn1c(=O)n(-c2ccc(Cl)cc2)c(=O)c2c3c(sc21)CCCCC3)Nc1cccc(Cl)c1` it was inactive: 84%.
For `Cc1ccc2cccc(NC(=O)c3cccc4c(Br)cccc34)c2n1`, the survival is inactive: 134%.
Take `COc1cccc(CNS(=O)(=O)c2ccc3c(c2)CC(C)N3C(=O)C2CCC2)c1` (configuration not stated): the survival is inactive: 78%.
For `CN(C)S(=O)(=O)c1ccc(/C(O)=C2\C(=O)C(=O)N(Cc3cccnc3)C2c2cccnc2)cc1` (configuration not stated), the survival is inactive: 104%.
Take `COc1ccc(C)cc1NC(=O)C(=O)NCC(c1cccnc1)N1CCN(c2ccccc2F)CC1` (configuration not stated): the survival was inactive: 52%.
Take `COc1cccc(NC(=O)C2CCN(S(=O)(=O)c3c(C)noc3C)CC2)c1`: the survival was inactive: 102%.
On to `Cc1ccc(C(=O)COC(=O)c2cc(-c3cccs3)nc3ccccc23)cc1`, for which the survival is inactive: 50%.
As to `CCc1cccc(NC(=O)Nc2cn(C)c(=O)c3ccccc23)c1`, the survival was inactive: 88%.
In the case of `Cc1ccc(S(=O)(=O)c2cn(CC(=O)Nc3ccc(F)cc3)c3cc4c(cc3c2=O)OCO4)cc1` it was inactive: 72%; in that of `COc1ccc(-c2noc(CCC(=O)Nc3cccc(C)c3C)n2)cc1OC`, inactive: 69%; in that of `CCc1ccccc1NC(=O)Cn1c(=O)n(-c2cccc(C)c2)c(=O)c2c1c1cc(OC)ccc1n2C`, inactive: 72%.
Under `CC(C)OCCCNC(=O)Cc1ccc(NC(=O)N2CCCCc3ccccc32)cc1` stands inactive: 78%; under `CCOc1ccccc1N(C)C(=O)c1cc2c(s1)-c1ccccc1OC2`, active: -2%.
For the molecule `S=C(NCCN1CCCCC1)Nc1ccccc1`, the survival was inactive: 82%.
For `COc1ccccc1NC(=O)CC1S/C(=N\N=C(/C)c2ccccc2)NC1=O` (configuration not stated), the survival is inactive: 86%.
On to `CCOC(=O)CC(NC(=O)c1cc2c(=O)n3cccc(C)c3nc2s1)c1ccc(OCC)c(OC)c1` (configuration not stated), for which the survival was inactive: 159%.
With `CCN(CCCNC(=O)c1nn(-c2ccc(C)cc2)c(=O)c2c1c1ccccc1n2C)c1cccc(C)c1`, the survival is inactive: 76%.
In the case of `Cc1ccc(CNC(=O)c2ccc(N3CCCC3)c(NC(=O)Nc3ccc(F)c(Cl)c3)c2)cc1`, the survival was inactive: 85%.
As to `Cc1ccc2c(c1)-c1c(c(C(=O)N3CCN(c4cc(C)ccc4C)CC3)nn1C)CS2`, the survival is inactive: 69%.

Source of the values: PubChem BioAssay AID463173 (ICCB-Longwood Screening Facility, Harvard Medical School, 2010).
